About 310 (0.076%) of roughly 410,000 compounds were called active. Inconclusive results, whose numbers are uncertain, are shown with a selection of clear calls. Calls follow the shape of the dose curve; as a rule, active = well fitted curve in the direction sought with a large enough effect; inconclusive = small, poorly fitted or top-dose-only effect; inactive = flat fitted curve, though single readings scatter. Potencies beside an inconclusive call are fits to weak or partial responses and may not hold up.
These compounds were tested against DNA dC->dU-editing enzyme APOBEC-3G (Homo sapiens) (UniProt Q9HC16) (assay: qHTS for Inhibitors of Vif-A3G Interactions: qHTS). Details: HeLa A3G-eYFP + Vif (tagged APOBEC3G with the HIV-1 protein that degrades it), YFP fluorescence, overnight; series mostly up to 46.1 µM.
Chain of UniProt Q9HC16 (Q9HC16 whole entry, looked up): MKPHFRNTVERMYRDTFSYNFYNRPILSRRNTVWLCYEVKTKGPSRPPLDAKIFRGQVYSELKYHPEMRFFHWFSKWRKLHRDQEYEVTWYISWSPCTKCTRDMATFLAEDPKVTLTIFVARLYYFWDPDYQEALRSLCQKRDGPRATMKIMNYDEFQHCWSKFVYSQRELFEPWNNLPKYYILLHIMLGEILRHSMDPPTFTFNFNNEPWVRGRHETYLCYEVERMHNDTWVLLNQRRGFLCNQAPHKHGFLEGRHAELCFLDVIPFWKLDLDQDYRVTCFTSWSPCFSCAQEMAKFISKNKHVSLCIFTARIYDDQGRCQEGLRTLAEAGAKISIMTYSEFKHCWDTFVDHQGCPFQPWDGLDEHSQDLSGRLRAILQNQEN
Summary of the method: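 Read-out is eYFP fluorescence (Ex 488/Em 500-530) from Vif-expressing HeLa A3G-eYFP cells; more signal means A3G escaped Vif-mediated degradation. Cells plated overnight, compound pinned in, incubated overnight at 37 deg C.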
Also: nearly all actives have a fitted effect of over 60% in size.
Potency is read from the fitted curve at half-maximal effect; tags tell the direction and shape of the fitted curve.

SMILES | Potency
Nc1nc(Nc2cccc(Cl)c2)nc(NCc2ccco2)c1[N+](=O)[O-] | inconclusive: 11.2 µM [inhibitor, partial curve, poor fit]
COc1cccc(/C=N/NC(=O)c2cc3c(OC)c(OC)ccc3[nH]2)c1OC | active: 3.98 µM
COC(=O)C(C(=O)Nc1ccc(OC)cc1)C1CCCCCC1 (configuration not stated) | inconclusive: 22.4 µM [inhibitor, single point]
Cc1cc(C)c(C#N)c(SCC(=O)Nc2nonc2N)n1 | inactive
Cc1ccccc1NCc1ccc([N+](=O)[O-])s1 | inactive
COc1ccc(N(Cc2cccs2)C(=O)COc2cccc(Cl)c2)cc1 | inactive
O=C1CC(c2cccc([N+](=O)[O-])c2)c2c(ccc3ccccc23)N1 (configuration not stated) | inconclusive: 2.51 µM [inhibitor, full curve, poor fit]
Cc1onc(-c2ccccc2Cl)c1C(=O)O/N=C(\N)c1cccc([N+](=O)[O-])c1 | inconclusive: 17.8 µM [inhibitor, single point]
COc1cccc(-n2c(=O)c3c(C)c(C(=O)N(C)C)sc3n(Cc3ccc(F)cc3Cl)c2=O)c1 | inactive
Cc1c2ccccc2nc2c(F)c(N(C)C)c(F)c(F)c12 | inconclusive: 15.8 µM [inhibitor, partial curve, poor fit]
Cc1ccc(NC(=O)c2cc(S(=O)(=O)NCCC3=CCCCC3)ccc2F)cc1F | inconclusive: 35.5 µM [inhibitor, partial curve, poor fit]
COc1ccc(-c2cc(NC=O)c3ncc(-c4cccc(C(C)=O)c4)n3c2)cc1 | inconclusive: 25.1 µM [inhibitor, single point]
COc1cc2c(cc1OC)CN(C(=O)/C=C/c1ccccc1[N+](=O)[O-])CC2 | inconclusive: 6.31 µM [inhibitor, partial curve, poor fit]
Nc1cc(N2CCCCCC2)c2nonc2c1[N+](=O)[O-] | inconclusive: 25.1 µM [inhibitor, single point]
COc1ccc2nc(NC(=O)c3cccc(N4C(=O)CCC4=O)c3)sc2c1 | inactive
COc1cc2c(OC(C)=O)c3c(c(-c4ccc5c(c4)OCO5)c2cc1OC)C(=O)OC3 | inconclusive: 2.51 µM [inhibitor, partial curve, poor fit]
Cn1c(=O)c(NCCO)c2c3c(cccc31)C(=O)c1ccccc1-2 | inactive
CCCCCCCCCC[n+]1ccc(/C=C/c2ccc(N(C)C)cc2)c2ccccc21 | inconclusive: 2.24 µM [inhibitor, partial curve, poor fit]
CCCn1c(N)c(C(=S)NC(=O)C2CC2)c(=O)n(C)c1=O | inactive
Cc1ccc(N=C2NC(=O)/C(=C/c3cn(C)c4ccccc34)S2)cc1C | active: 8.91 µM
COc1ccccc1NC(=O)c1oc2ccccc2c1NC(=O)c1cc(OC)c(OC)c(OC)c1 | inconclusive: 2.51 µM [inhibitor, full curve, poor fit]
N#CC1=C(N)Oc2c(ccc3cccnc23)C1c1cccnc1 (configuration not stated) | inconclusive: 3.98 µM [inhibitor, full curve, poor fit]
Cc1nc2c(OCc3ccc(Cl)cc3Cl)cccn2c1N(C)CC1CC1 | inconclusive: 15.8 µM [inhibitor, single point]

SMILES | Potency
O=C(c1cccc([N+](=O)[O-])c1)N1CCN(c2cccc(Cl)c2)CC1 | inconclusive: 7.08 µM [inhibitor, full curve]
O=S(=O)(/C(=C\c1ccc(C(F)(F)F)cc1)c1nc2ccccc2[nH]1)c1ccccc1 | inconclusive: 3.16 µM [inhibitor, full curve, poor fit]
COc1ccc(NS(=O)(=O)c2c(F)cccc2F)cc1S(=O)(=O)N1CCOCC1 | inactive
COc1ccc(/C=C2\CCc3ccccc3C2=O)cc1O | inconclusive: 3.16 µM [inhibitor, partial curve, poor fit]
O=C(C1=C(O)C(=O)N(CCN2CCOCC2)C1c1cccs1)c1cc2ccccc2o1 (configuration not stated) | inactive
Cc1c(N=N/C(C(=O)Nc2ccccc2)=C(/O)c2ccccc2)c(=O)n(-c2ccccc2)n1C | inactive
Cc1cc(-c2n[nH]c(=S)n2/N=C/C(Br)=C/c2ccccc2)n[nH]1 | inconclusive: 3.98 µM [inhibitor, single point]
Cc1c(Cl)ccc2sc(NC(=O)c3ccc(S(=O)(=O)N4CCCc5ccccc54)cc3)nc12 | inconclusive: 28.2 µM [inhibitor, single point]
N#Cc1ccc(NC(=O)COc2ccccc2C(=O)Nc2ccccc2)cc1 | inactive
C=CCn1c(C)c(/C=C/c2cc[n+](C)cc2)c2ccccc21 | inconclusive: 2.82 µM [inhibitor, partial curve, poor fit]
CCc1ccc(CCC(=O)Nc2sc3c(c2C#N)CCCC3)o1 | inconclusive: 2.24 µM [inhibitor, partial curve, poor fit]
Cc1ccc2oc(/N=C(\N)NC(=O)C3CC3)nc2c1 | inconclusive: 7.94 µM [inhibitor, partial curve, poor fit]
COc1ccccc1NC(=O)C1=C(C)Nc2nc3ccccc3n2C1c1cccs1 (configuration not stated) | inconclusive: 1.78 µM [inhibitor, full curve, poor fit]
COc1ccc(OC)c(NC(=O)C(Sc2ccccc2)c2ccccc2)c1 (configuration not stated) | inactive
Cc1ccn2c(Nc3ccccc3C)c(-c3ccccn3)nc2c1 | inconclusive: 35.5 µM [inhibitor, single point]
O=C(Nc1nccs1)C(Br)C(Br)c1ccccc1 (configuration not stated) | inconclusive: 35.5 µM [inhibitor, single point]
COc1ccc(NC(=S)NN(C)C(=S)Nc2ccc(OC)cc2)cc1 | inconclusive: 1 µM [inhibitor, full curve]
Cc1ccc(C2C=C(c3ccc(Cl)cc3)Nc3nc(NS(=O)(=O)c4ccccc4)nn32)cc1 (configuration not stated) | inconclusive: 28.2 µM [inhibitor, single point]
CCOC(=O)c1[nH]c2ccc(F)cc2c1NC(=O)CN1CCN(C/C=C/c2ccccc2)CC1 | inactive
CCc1ccc(-n2c(SCc3ccccc3F)nc3[nH]ncc3c2=O)cc1 | inactive
Fc1cccc(Nc2nc3ccccc3n3nnnc23)c1 | inconclusive: 35.5 µM [inhibitor, single point]
c1ccc(-c2cn(-c3ccccc3)c3ncnc(N4CCCCC4)c23)cc1 | inactive
Cc1ccc(Nc2c([N+](=O)[O-])c(=O)n(C)c3ccccc23)cc1 | inconclusive: 35.5 µM [inhibitor, partial curve, poor fit]

SMILES | Potency
C=CCn1c(SCC(=O)c2ccccc2)nnc1-c1ccc2c(c1)OCO2 | inconclusive: 17.8 µM [inhibitor, single point]
Nc1nn(-c2ccccc2)c(N)c1N=Nc1ccccc1F | inconclusive: 5.62 µM [inhibitor, single point]
COC(=O)/C=C/C(=O)N1CCN(c2ccccc2C)CC1 | inconclusive: 25.1 µM [inhibitor, single point]
COCC(=O)N/N=C\c1ccccc1OC/C=C/c1ccccc1 | inconclusive: 22.4 µM [inhibitor, single point]
CCCCOC(=O)NC1CCc2cc(OC)c(OC)c(OC)c2-c2ccc(SC)c(=O)cc21 (configuration not stated) | inactive
COc1ccc(-c2cnc(C)o2)cc1S(=O)(=O)Nc1ccc(C)c(F)c1 | inconclusive: 1.26 µM [inhibitor, full curve, poor fit]
Cc1ccc(-n2nnnc2Sc2ccc(S(=O)(=O)NCCN(C)C)cc2[N+](=O)[O-])cc1 | inactive
COC(=O)c1ccccc1COn1c(=O)c(C)[n+]([O-])c2ccccc21 | inconclusive: 22.4 µM [inhibitor, single point]
O=C1OC(Nc2ccc3c(c2)OCO3)c2ccccc21 (configuration not stated) | inconclusive: 35.5 µM [inhibitor, single point]
N#C/C(=C\c1c(Oc2ccc(Cl)cc2)nc2ccccn2c1=O)C(=O)NC1CCS(=O)(=O)C1 (configuration not stated) | inconclusive: 35.5 µM [inhibitor, single point]
COc1ccc(Nc2cc(=O)oc3ccccc23)cc1 | inconclusive: 4.47 µM [inhibitor, partial curve, poor fit]
CCOC(=O)/C=C1\CC(C(=O)OCC)Oc2c(OC)cccc21 (configuration not stated) | inactive
COc1ccccc1C1c2ccc3ccccc3c2Oc2ncn(CCN(C)C)c(=N)c21 (configuration not stated) | inconclusive: 7.08 µM [inhibitor, partial curve, poor fit]
COc1ccc(S(=O)(=O)Nc2cccc3cccnc23)c(N)c1 | inconclusive: 35.5 µM [inhibitor, single point]
N#Cc1cc(Oc2cccc3cccnc23)c(-n2nnc3ccccc32)cc1C#N | inconclusive: 25.1 µM [inhibitor, single point]
Cc1ccc(Cl)cc1N1CCN(C(=O)c2cn(C3CCCCC3)c(=O)c3c2c2ccccc2n3C)CC1 | inactive
CCn1c2ccccc2c2cc(C3C(C#N)=C(N)Oc4n[nH]c(COC)c43)ccc21 (configuration not stated) | inactive
CCOc1ccc(-n2c(C)cc(C(=O)CCl)c2C)cc1 | inconclusive: 2.82 µM [inhibitor, partial curve, poor fit]
CC1CCN(c2c(NCc3ccc(C(=O)N4CCc5ccccc54)cc3)c(=O)c2=O)CC1 | inconclusive: 1.41 µM [inhibitor, full curve, poor fit]
Cc1ccc(C(=O)CSc2nnc(-c3ccccc3N)n2C)cc1 | inactive
CCOCCCNC(=O)c1ccc2c(c1)N=C(CC)c1cc(Br)ccc1S2 | inactive

Source: PubChem BioAssay AID602310 (National Center for Advancing Translational Sciences (NCATS), 2012)
